# According to the supplement of paper PMC12217912:
# This is one part of the list. Sequences were assembled here from the parent chain. Inactive controls read about 0.05.
# B1: TEV protease; numbered along this chain (parent)
# chain: MGESLFKGPRDYNPISSSICHLTNESDGHTTSLYGIGFGPFIITNKHLFRRNNGTLVVQSLHGVFKVKDTTTLQQHLVDGRDMIIIRMPKDFPPFPQKLKFREPQREERICLVTTNFQTKSMSSMVSDTSCTFPSGDGIFWKHWIQTKDGQCGSPLVSTRDGFIVGIHSASNFTNTNNYFTSVPKNFMELLTNQEAQQWVSGWRLNADSVLWGGHKVFMVKPEEPFQPVKEATQL
# Variants of: B1
# Assay: raw area under fraction-flipped curve 0-4 h after induction (AUC4h, not background-subtracted), DNA-recorder readout of cleavage of the substrate (dimensionless); higher = more cleavage of the substrate by the protease variant
# Conditions: temperature: 34 °C; time window: 0-4 h after rhamnose induction
# Experimental: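 In vivo DNA recorder in E. coli TOP10(DE3) ΔrhaA at 34 °C. Each TEVp single-site mutant (parent TEVp 0) is paired with a single-site variant of the 7-mer TEVs (canonical ENLYFQ|S). The substrate sits between flexible linkers in a Bxb1-sfGFP-TEVs-SsrA fusion, so cleavage stabilises Bxb1 and speeds flipping of a recombination array, read by NGS. The value is the raw area under the fraction-flipped curve over 0-4 h after rhamnose induction (AUC4h), with ≥20 reads per time point. It is not background-subtracted; inactive controls average about 0.047.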
# 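Further: Bxb1 expression induced with 0.2% (w/v) L-rhamnose at OD600 near 0.5, cultures sampled hourly, flipped fraction per protease–substrate barcode pair counted by paired-end Illumina sequencing.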
Variant,area with substrate ENLYFCS,area with substrate ENLYFDS,area with substrate ENLYFES,area with substrate ENLYFHS,area with substrate ENLYFIS,area with substrate ENLYFLS,area with substrate ENLYFMS,area with substrate ENLYFNS,area with substrate ENLYFPS,area with substrate ENLYFSS,area with substrate ENLYFTS,area with substrate ENLYFVS,area with substrate ENLYFWS,area with substrate ENLYFFS,area with substrate ENLYFKS,area with substrate ENLYFRS,area with substrate ENLYFYS,area with substrate ENLYFGS
S60K,0.0576,0.0576,0.0557,0.0634,0.0507,0.0829,0.05,0.0535,0.0749,0.0604,0.0597,0.0551,0.0547,,,,,
G166M,,0.0258,0.0566,0.0215,0.0479,0.0476,0.0523,,0.069,0.0514,0.0622,,0.0553,0.0388,0.0509,0.0472,0.0407,
F133W,0.0639,0.0567,0.015,0.0466,0.0444,0.0283,0.0627,0.0678,0.0602,0.0549,0.0607,0.0605,0.0723,0.0664,0.05,0.0719,0.0896,0.0594
S171M,0.0572,,0.0554,0.0597,0.0606,0.0484,0.0595,0.0432,0.072,,0.0566,0.0563,0.0613,0.0619,0.056,0.067,0.0624,0.062
S171F,,0.0479,0.0766,0.0562,0.0516,,0.0489,0.0469,0.0612,,,0.0572,,0.0759,0.0741,,0.0666,0.0593
P222D,0.0568,0.0598,0.062,0.0574,0.0462,,,0.064,0.0672,0.0577,0.0573,,,0.0668,0.0577,0.0661,0.0506,
P104G,0.0503,,0.0464,0.0486,0.0556,0.0761,0.0475,0.063,0.0576,,0.055,0.0535,0.0513,0.0599,0.0445,0.0504,0.0423,
V217P,0.0608,0.0639,0.0717,,0.0556,0.062,0.0525,0.0589,0.0593,,0.0648,0.0561,0.0564,0.0677,,0.062,0.0476,0.0567
C152P,,0.0782,0.061,0.0628,0.0547,0.0568,0.0562,0.0638,,,0.058,0.0586,,0.0622,,,0.0378,
T176K,0.0625,0.058,0.0611,,0.0644,0.0564,0.0595,,,,,0.0685,0.069,,0.0625,0.0423,0.0841,
M83D,0.0488,0.0389,0.0437,,0.0561,0.0505,0.0485,,0.0522,0.049,0.0442,0.0506,0.0422,0.061,0.0596,0.0508,0.0573,
K230D,0.0601,,0.0668,0.0605,0.0619,,0.0749,0.0701,0.0539,0.0369,0.0473,0.0581,,0.0669,0.0623,,,0.0659
Q105D,0.0658,0.0479,0.0688,0.0554,0.0616,0.0556,0.0756,0.0659,0.0627,0.0604,0.045,0.0395,0.0596,0.0612,0.0621,0.0571,0.0514,0.0534
